Consider 20 variants from the RNAGym collection of RNA variant scans (doi:10.7554/elife.90254).

B1: LINE1-full (parent)
chain: UACGUAGGUGGUUUUCCCCUGAUAGUGCUAAGGGGGCCUGGAAGUUUGGACUGGGCAGAGCUCAACACAGCGUGGCAAAGUGGCUGUGGCUAGACUGCCUCUCUGGAUUCCUCGUCACUCAGCAGGGCAUCUCUGAGAGAAAUGCC

Read counts are not given, so values of variants with three or more changes are uncertain.

This data set covers variants of B1. Kind of data set: self-cleavage, relative activity (ratio to wild type); higher = more cleavage; in vitro, sequencing; the parent is a self-cleaving ribozyme.
On to UACGUAGGUGGUUUUCCCCUGAUGGUGCUAAGGGGGCCUGGAAGUUUGGACUGGGCAGAGCUCAACACAGCGUGGCAAAGUGGCCGUGGCUAGACUGCCUCUCUGGAUUCCUCGUCACUCAGCAAGGCACCUCUGAGAGAAAUGCC [A24G U85C G125A U130C], for which the self-cleavage worked out at 0.56. Consider UACGUAGGUGGUUUUCCCCUGAUGGUGCUAAGGGGGCCUGGAAGUUUGGACUGGGCAGAGCUCAACACAGCGUGGCAAAGUGGCUGUGGCUAGACUGCCUCUCUGGACUCCUCAUCACUCAGCAGGGCAUCCCUGAGAGAAAUGCC [A24G U108C G114A U132C], for which the self-cleavage stood at 1.11.

Consider UACGUAGGUGGUUUUCCCCUGAUGGUGCUAAGGGGGCCUGGAAGUUAGGACUGGGCAGAGCUCAACACAGCGUGGUAAAGUGGCUGUGGCUAGACUGCCUCUCUGGAUUCCUCGUCACUCAGCAGGGCAUCUCUGAGAGGAAUGCC [A24G U47A C76U A140G], for which the self-cleavage came to 1.77. The result for UACGUAGGUGGUUUUCCCCUGAUUGUGCUAAGGGGGCCUGGAAGUUUGGACUGGGCAGGGCUCAACACAGCGUGGCAAAGUGGCUGUGGCUAGACUGCCUCUCUGGAUUCCUCGUCACUCAGCAGGGCGUCUCUGAGAGAAAUGCC [A24U A59G A129G] reads 0.14; that for UACGUAGGUGGUUUUCCCCUGAUGGUGCUAAGGGGGCCUGGAAGCUUGGACUGGGCAGAGCUCAACACAGCGUGUCAAAGUGGCUGUGGCUAGACUGCCUCUCUGGAUUCCUCGUCACUCAGCAGGGCAUCUCUGAGAGAAAUGCC [A24G U45C G75U], 0.99; that for UACGUAGGUGGUUUUCCCCUGAUGGUGCUAAGGGGGCCUGGAAGUUUGGACUGGGCAGAGCUCAACACAGCGUGGCAAAGUGGCUGUGGCUAGACUGCCUCUCUGGAUUCCUCGUCACUCAGCAGGGCAUCUCCGAGAGAAGUGCC [A24G U134C A142G], 0.84. The result for UACGUAGGUGGUUUUCCCCUGAUUGUGCUAAGGGGGCCUGGAUGUUCGGACUGGGCAGAGCUCAACACAGCGUGGCAAAGUGGCUGUGGCUAGACAGCCUCUCUGGAUUCCCCGUCACUCAGCAGGGCAUCUCUGAGGGAAAUGCC [A24U A43U U47C U96A U112C A138G] reads 0.22; that for UACGUAGGUGGUUUUCCCCUGAUUGUGCUAAGGGGGCCUGGAAGUUUGGACUGGGCGGAGCUCAACACAGCGUGGUAAAGUGGCUGUGGCUAGACAGCCUCUCUGGAUUCCUCGUCACUCAGCAGGGCAUCUCUGAGAGAAAUGCC [A24U A57G C76U U96A], 0.06; that for UACGUAGGUGGUUUUCCCCUGAUGGUGCUAAGGGGGCCUGGAAGUUUGGACUGGGCAGAGCUCAACACAGCGUGGCAAAGUGGCUGUGGCUAGACUGCCUCUCUGGAUUCCUCGACACUCAGCAGGGCAUCUCUGAGGGAAAUGCC [A24G U115A A138G], 1.88. UACGUAGGUGGUUUUCCCCUGAUGGUGCUAAGGGGGCCUGGAAGUUUGGACUGGGCAGAGCUCAACACAGCGUGGCAAAGAGGCUGUGGCUAGACUGCCCCUCUGGAUUCCUCGACACUCAGCAGGGCAUCUCUGAGAGAAAUGCC [A24G U81A U100C U115A]: the self-cleavage turned out to be 2.97. For UACGUAGGUGGUUUUCCCCUGAUGGUGCUAAGGGGGCCUGGAAGUUAGGACUGGGCAGAGCUCAACACAGCGUGGCAAAGUGGCUGUGGCUAGACUGCCUCUCUGGAUUCCUCGUCACUCAGCAGGGCAUCUCUGAGAGAGAUGCC [A24G U47A A141G], the self-cleavage was found to be 0.

With UACGUAGGUGGUUUUCCCCUGAUUGUGCUACGGGGGCCUGGGAGUUUGGACUGGGCAGAGCUCUACACAGCGUGGCAAAGUGGCUGUGGCUAGACUGCCUCUCUGGAUUCCUCGUCACUCAGCGGGGCAUCUCUGAGAGAGAUGCC [A24U A31C A42G A64U A124G A141G], the self-cleavage came out at 0.66. Take UACGUAGGUGGUUUUCCCCUGAUGGUGCUAAGGGGGCCUGGAAGUUUGGACUGGGCAGAGCUCAACACAGCGUGGCAAAGUGGCUGUGGCUAGACUGCCACUCUUGAUUCCUCGUCACUCGGCAGGGCAUCUCUGAGAGAAAUGCC [A24G U100A G105U A121G]: the self-cleavage turned out to be 1.75.

On to UACGUAGGUGGUUUUCCCCUGAUGGUGCUAAGGGGGCCUGGAAGUUUGGACUGGGCAGAGCUCAACACAGCGCGGCAAAGUGGCUGCGGCUAGACUGCCUCUCUGGAUUCCUCGUCACUCAGCAGGGCAUCUCUGUGAGAAAUGCC [A24G U73C U87C A136U], for which the self-cleavage was determined as 0. As to UACGUAGGUGGUUUUCCCCUGAUGGUGCUAAGGGGGCCUGGAAGUUUGGACUGGGCAGAGCUCAACACAGCGUGGCAAAGUGGCUGUGGCUAGACCGCCUCUCUGGAUUCCUCGUCACUCAGCAGGGCUUCUCUGAGAGAAAUGCC [A24G U96C A129U], the self-cleavage stood at 0.22. Take UACGUAGGUGGUUUUCCCCUGAUGGUGCUAAGGGGGCCUGGAAGUUCGGACUGGGCAGAGCUCAACACGGCGUGGCAAAGUGGCUGUGGCUAGACUGCCUCUCUGGAUUCUUCGUCACUCAGCAGGGCAUCUCUGAGAGAAAUGCC [A24G U47C A69G C111U]: the self-cleavage came to 1.27.

UACGUAGGUGGUUUUCCCCUGAUUGUGCUAAGGGGGCCUGGUAGUUUGGACUGGGCAGAGCUCAACACAGCGUGGCGAAGUAGCUGUGGCUAGACUGCCUCUAUGGAUUCCUCGUCACUCAGCAGGGCAUCCCUGAGAGAAGUGCC [A24U A42U A77G G82A C103A U132C A142G]: the self-cleavage was determined as 0.

As for UACGUAGGUGGUUUUCCCCUGAUGGUGCUAAGGGGGCCUGGAAGUCUGGACUGGGCAGAGCUCAACACAGCGUGGCAAAGUGGCUGUGGCUAGACUGCCUCUCUGGAUUCCUCGCCACUCAGCAGGGCAUCUCUGAGAGAAAUGCC [A24G U46C U115C], the self-cleavage came out at 2.24. Regarding UACGUAGGUGGUUUUCCCCUGAUGGUGCUAAGGGGGCCUGGAAGUUUGGACCGGGCAGAGCUCAACACAGCGUGGCAAAGUGGCUGUGGCCAGACUGCCUCUCUGGAUUCCUCGUCACUCAGCAGGGCAUCUCUGAGAGAAAUGCC [A24G U52C U91C], the self-cleavage is 0.46. On to UACGUAGGUGGUUUUCCCCUGAUUGUGCUAAGGGGGCCUGGAUGUAUGGACUGGGCAGAGCUCAACACAGCGUGGCAAAGUGGCUGUGGCUAGACUGCCUCUCUGGAUUCCUCGUCACUCAGCAGGGCAUCUCUGAGAGAAAUGCC [A24U A43U U46A], for which the self-cleavage turned out to be 1.15.
